# Experimental data published in the supplement of paper PMC8728848.
# Some of the results follow.
# B1: rAAL-I144G (Agrocybe aegerita), Q6WY08 (protein)
# chain: MQGVNIYNISAGTSVDLAAPVTTGDIVTFFSSALNLNAGAGNPNNTTLNLFAENGAYLLHIAFRLQENVIIFNSRQPDGPWLVEQRVSDVANQFAGIDGKAMVTVFDHGDKYQVVINEKTVIQYTKQISGLTLSLSYNATEETSGFSTVVEAVTYTGLALEHHHHHH
# Columns and labels:
# Assay in all cases: glycan array binding signal (z-score within array); higher = stronger binding
# Conditions in all cases: glycan notation: IUPAC condensed, linker removed; mutation: I144G
# [1] = target: Gal3S(b1-3)[Fuc(a1-4)]GlcNAc
# Procedure, shortened: (§1)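 The binding signal is a Z-score computed within each array. Data were drawn from 3228 arrays in the Consortium for Functional Glycomics database, restricted to those with a known protein sequence. Scores were averaged over arrays of the same protein sequence at different concentrations or buffers, and over linkers, and negative values can be taken as non-binding.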
# [2] = target: Gal3S(b1-4)Glc
# Procedure, shortened: as §1
# [3] = target: Gal3S(b1-4)Glc6S
# Procedure, shortened: as §1
# [4] = target: Gal3S(b1-4)GlcNAc
# Procedure, shortened: as §1
# [5] = target: Gal3S(b1-4)[Fuc(a1-3)]Glc6S
# Procedure, shortened: as §1
# [6] = target: Gal3S(b1-4)[Fuc(a1-3)]GlcNAc
# Procedure, shortened: as §1
# [7] = target: Gal3S(b1-4)[Fuc(a1-3)]GlcNAc6S
# Procedure, shortened: as §1
# [8] = target: Gal3S4S(b1-4)GlcNAc
# Procedure, shortened: as §1
# [9] = target: Gal3S6S(b1-4)GlcNAc
# Procedure, shortened: as §1
# [10] = target: Gal3S6S(b1-4)GlcNAc6S
# Procedure, shortened: as §1
# [11] = target: Gal4S(b1-4)GlcNAc
# Procedure, shortened: as §1
# [12] = target: Gal4S6S(b1-4)GlcNAc
# Procedure, shortened: as §1
# [13] = target: Gal6P(b1-4)GlcNAc
# Procedure, shortened: as §1
# [14] = target: Gal6S(b1-3)GlcNAc
# Procedure, shortened: as §1
# [15] = target: Gal6S(b1-3)GlcNAc6S
# Procedure, shortened: as §1
# [16] = target: Gal6S(b1-4)Glc
# Procedure, shortened: as §1
# [17] = target: Gal6S(b1-4)Glc6S
# Procedure, shortened: as §1
# [18] = target: Gal6S(b1-4)GlcNAc
# Procedure, shortened: as §1
# [19] = target: Gal6S(b1-4)GlcNAc6S
# Procedure, shortened: as §1
# [20] = target: GalNAc(a1-3)Gal
# Procedure, shortened: as §1
# [21] = target: GalNAc(a1-3)GalNAc
# Procedure, shortened: as §1
# [22] = target: GalNAc(a1-3)GalNAc(b1-3)Gal(a1-4)Gal(b1-4)Glc
# Procedure, shortened: as §1
# [23] = target: GalNAc(a1-3)GalNAc(b1-3)Gal(a1-4)Gal(b1-4)GlcNAc
# Procedure, shortened: as §1
# [24] = target: GalNAc(b1-3)Gal
# Procedure, shortened: as §1
# [25] = target: GalNAc(b1-3)Gal(a1-4)Gal(b1-4)GlcNAc
# Procedure, shortened: as §1
# [26] = target: GalNAc(b1-3)Gal(a1-4)Gal(b1-4)GlcNAc(b1-3)Gal(b1-4)Glc
# Procedure, shortened: as §1
# [27] = target: GalNAc(b1-3)Gal(a1-6)Gal(b1-4)Glc
# Procedure, shortened: as §1
# [28] = target: GalNAc(b1-3)GalNAc
# Procedure, shortened: as §1
# [29] = target: GalNAc(b1-3)GlcNAc
# Procedure, shortened: as §1
# [30] = target: GalNAc(b1-4)Gal(b1-4)Glc
# Procedure, shortened: as §1
# [31] = target: GalNAc(b1-4)GlcNAc
# Procedure, shortened: as §1
# [32] = target: GalNAc(b1-4)GlcNAc(b1-2)Man
# Procedure, shortened: as §1
# [33] = target: GalNAc(b1-4)GlcNAc(b1-2)Man(a1-3)[GalNAc(b1-4)GlcNAc(b1-2)Man(a1-6)]Man(b1-4)GlcNAc(b1-4)GlcNAc
# Procedure, shortened: as §1
# [34] = target: GalNAc(b1-4)GlcNAc(b1-3)GalNAc(b1-4)GlcNAc
# Procedure, shortened: as §1
# [35] = target: GalNAc(b1-4)GlcNAc6S
# Procedure, shortened: as §1
# [36] = target: GalNAc(b1-6)GalNAc
# Procedure, shortened: as §1
# [37] = target: GalNAc3S(b1-4)GlcNAc
# Procedure, shortened: as §1
# [38] = target: GalNAc3S(b1-4)GlcNAc3S
# Procedure, shortened: as §1
# [39] = target: GalNAc3S(b1-4)[Fuc(a1-3)]GlcNAc
# Procedure, shortened: as §1
# [40] = target: GalNAc4S6S(b1-4)GlcNAc
# Procedure, shortened: as §1
# [41] = target: GalNAc6S(b1-4)GlcNAc
# Procedure, shortened: as §1
# [42] = target: Glc(a1-4)Glc
# Procedure, shortened: as §1
# [43] = target: Glc(a1-4)Glc(a1-4)Glc(a1-4)Glc
# Procedure, shortened: as §1
# [44] = target: Glc(a1-6)Glc(a1-6)Glc
# Procedure, shortened: as §1
# [45] = target: Glc(a1-6)Glc(a1-6)Glc(a1-6)Glc
# Procedure, shortened: as §1
binder,measurement,setting,value
B1,glycan array binding signal (z-score),[1],-0.113
same,glycan array binding signal (z-score),[2],-0.035
same,glycan array binding signal (z-score),[3],0.763
same,glycan array binding signal (z-score),[4],0.004
same,glycan array binding signal (z-score),[5],-0.002
same,glycan array binding signal (z-score),[6],-0.011
same,glycan array binding signal (z-score),[7],0.087
same,glycan array binding signal (z-score),[8],-0.19
same,glycan array binding signal (z-score),[9],-0.161
same,glycan array binding signal (z-score),[10],-0.138
same,glycan array binding signal (z-score),[11],-0.146
same,glycan array binding signal (z-score),[12],-0.086
same,glycan array binding signal (z-score),[13],-0.119
same,glycan array binding signal (z-score),[14],-0.045
same,glycan array binding signal (z-score),[15],-0.118
same,glycan array binding signal (z-score),[16],-0.085
same,glycan array binding signal (z-score),[17],-0.214
same,glycan array binding signal (z-score),[18],-0.189
same,glycan array binding signal (z-score),[19],-0.134
same,glycan array binding signal (z-score),[20],-0.21
same,glycan array binding signal (z-score),[21],-0.105
same,glycan array binding signal (z-score),[22],-0.137
same,glycan array binding signal (z-score),[23],-0.175
same,glycan array binding signal (z-score),[24],-0.071
same,glycan array binding signal (z-score),[25],-0.043
same,glycan array binding signal (z-score),[26],-0.146
same,glycan array binding signal (z-score),[27],-0.107
same,glycan array binding signal (z-score),[28],-0.1
same,glycan array binding signal (z-score),[29],-0.152
same,glycan array binding signal (z-score),[30],-0.133
same,glycan array binding signal (z-score),[31],-0.124
same,glycan array binding signal (z-score),[32],-0.211
same,glycan array binding signal (z-score),[33],-0.132
same,glycan array binding signal (z-score),[34],-0.14
same,glycan array binding signal (z-score),[35],-0.1
same,glycan array binding signal (z-score),[36],-0.181
same,glycan array binding signal (z-score),[37],-0.159
same,glycan array binding signal (z-score),[38],-0.037
same,glycan array binding signal (z-score),[39],-0.182
same,glycan array binding signal (z-score),[40],-0.051
same,glycan array binding signal (z-score),[41],-0.033
same,glycan array binding signal (z-score),[42],-0.109
same,glycan array binding signal (z-score),[43],-0.031
same,glycan array binding signal (z-score),[44],-0.103
same,glycan array binding signal (z-score),[45],-0.13
